From patent US20090291975A1, “DUAL OPIOID PAIN THERAPY” (priority 2008, published 2009)

What was measured:
[1] = system: patients with chronic moderate to severe, non-cancer pain; assay: Study 1: Phase II randomized double-blind crossover, pain relief (VAS), Q8001 vs morphine; format: in vivo, human; conditions: at baseline (while receiving prior opioid therapy)
[2] = system: patients with chronic moderate to severe, non-cancer pain; assay: Study 2: Phase II randomized double-blind crossover, pain relief (VAS), Q8002 vs morphine; conditions: at baseline (while receiving prior opioid therapy)
[3] = system: patients with chronic moderate to severe, non-cancer pain; assay: Study 2: opioid-related adverse events (nausea, vomiting, constipation, drowsiness); format: in vivo, human
[4] = system: patients with chronic moderate to severe, non-cancer pain; assay: Study 1: opioid-related adverse events (nausea, vomiting, constipation, drowsiness); format: in vivo, human

CN1CC[C@]23c4c5ccc(O)c4O[C@H]2[C@@H](O)C=C[C@H]3[C@H]1C5 [Morphine, morphine]
PAIN SCORE (VAS) At BASELINE [1]: 4.5 | PAIN SCORE (VAS) At BASELINE [2]: 4.8 | Constipation, No, rate [3]: (35%) | Constipation, Yes, incidence rate [3]: (65%) | Drowsiness, No, rate [3]: (57%) | Drowsiness, Yes, incidence rate [3]: (43%) | Nausea, No, rate [3]: (48%) | Nausea, Yes, incidence rate [3]: (52%) | Vomiting, No, rate [3]: (87%) | Vomiting, Yes, incidence rate [3]: (13%) | Constipation, Yes (number of patients) ([3]; graded score of 1 or higher): 15 | Drowsiness, Yes (number of patients) ([3]; graded score of 1 or higher): 10 | Vomiting, Yes (number of patients) ([3]; graded score of 1 or higher): 3 | Constipation, No (number of patients) ([3]; score 0): 8 | Drowsiness, No (number of patients) ([3]; score 0): 13 | Nausea, No (number of patients) ([3]; score 0): 11 | Vomiting, No (number of patients) ([3]; score 0): 20 | Constipation, No, rate [4]: (43%) | Constipation, Yes, incidence rate [4]: (57%) | Drowsiness, No, rate [4]: (29%) | Drowsiness, Yes, incidence rate [4]: (71%) | Nausea, No, rate [4]: (43%) | Nausea, Yes, incidence rate [4]: (57%) | Vomiting, No, rate [4]: (90%) | Vomiting, Yes, incidence rate [4]: (10%) | Constipation, Yes (number of patients) ([4]; graded score of 1 or higher): 12 | Drowsiness, Yes (number of patients) ([4]; graded score of 1 or higher): 15 | Nausea, Yes (number of patients) ([4]; graded score of 1 or higher): 12 | Vomiting, Yes (number of patients) ([4]; graded score of 1 or higher): 2 | Constipation, No (number of patients) ([4]; score 0): 9 | Drowsiness, No (number of patients) ([4]; score 0): 6 | Nausea, No (number of patients) ([4]; score 0): 9 | Vomiting, No (number of patients) ([4]; score 0): 19
